{
  "source": "the supplement of paper PMC4723716",
  "note": "± gives the uncertainty stated by the source. The full ranking holds about 9,900 compounds; the median of “viability index relative to DMSO control” is about 1, and the lowest 2% start at about 0.85. The list shows a part of the results.",
  "data": [
    {"tested_on": "Plasmodium falciparum NF54 stage V gametocytes", "test": "viability index relative to DMSO control (fraction); higher = less gametocyte killing", "conditions": "2.5 µM, library set: Broad Institute DOS, incubation time: 72 h", "method_in_brief": "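P. falciparum NF54 stage V gametocytes (serum-free medium, 0.75% gametocytemia, 1.25% hematocrit) were exposed to compound at 2.5 µM for 72 hr at 37°C under low oxygen, then stained with MitoTracker Red CMXRos and saponin for one to two hours. Red particles of 20–70 µm2 in one field per well were counted, and the viability index is that count scaled to the plate mean of solvent-only wells.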", "values": [
      {"molecule": "O=C(NCC[C@H]1CC[C@@H](NC(=O)c2ccccc2F)[C@@H](CO)O1)c1cnccn1", "viability index": "0.909 ± 0.13"},
      {"molecule": "C[C@@H]1CCCCO[C@H](CN(C)S(=O)(=O)c2cn(C)cn2)[C@@H](C)CN([C@@H](C)CO)C(=O)c2cc(NC(=O)Nc3cccc4ccccc34)ccc2O1", "viability index": "1.12 ± 0.12"},
      {"molecule": "COc1ccc2c3c([nH]c2c1)[C@@H](CO)N(CC1CC1)C[C@]31CN(C1)C(=O)c1ccc(F)cc1", "viability index": "1.02 ± 0.097"},
      {"molecule": "COCC(=O)N1[C@H](CO)[C@H](c2ccc(-c3ccccc3OC)cc2)C12CN(C(C)=O)C2", "viability index": "1.07 ± 0.077"},
      {"molecule": "C[C@H](CO)N1C[C@H](C)[C@@H](CN(C)C(=O)Nc2ccc(F)cc2)Oc2ccc(NC(=O)c3ccncc3)cc2CC1=O", "viability index": "0.909 ± 0.074"},
      {"molecule": "CN(C)C(=O)c1ccc(-c2ccc([C@@H]3[C@H]4CNC[C@@H]3N4Cc3ccccn3)cc2)cc1", "viability index": "1.02 ± 0.016"},
      {"molecule": "O=C(C1CCOCC1)N1CC[C@@H]2[C@H]1c1cc(-c3cccc(F)c3)ccc1N[C@@H]2CO", "viability index": "1.1 ± 0.062"},
      {"molecule": "CCC(=O)N1[C@@H]2c3cccc(=O)n3C[C@H]1[C@H](CO)[C@H]2C(=O)NC1Cc2ccccc2C1", "viability index": "1.01 ± 0.015"},
      {"molecule": "Cn1cnc(S(=O)(=O)N2C[C@@H]3N[C@H](C2)[C@H]3c2ccc(-c3ccccc3F)cc2)c1", "viability index": "1.06 ± 0.046"},
      {"molecule": "COc1ccc(NC(=O)N[C@H]2CC[C@@H](CCNC(=O)CN3CCOCC3)O[C@@H]2CO)cc1", "viability index": "0.999 ± 0.012"},
      {"molecule": "O=C(C[C@H]1CC[C@@H]2NC[C@H](O)COC[C@H]2O1)N1CCc2ccccc2C1", "viability index": "1.03 ± 0.059"},
      {"molecule": "CC(C)NC(=O)N1CC[C@@H]2[C@H]1c1cc(-c3ccc(F)cc3)ccc1N(C)[C@H]2CO", "viability index": "1.0672 ± 8.2e-05"},
      {"molecule": "CCCN1C[C@H](C)[C@@H](OC)CN(C)C(=O)c2cc(NC(=O)C3CCC3)ccc2OC[C@@H]1C", "viability index": "1.06 ± 0.035"},
      {"molecule": "CO[C@H]1CN(C)C(=O)c2ccc(NS(=O)(=O)CC(F)(F)F)cc2OC[C@H](C)N(Cc2nccs2)C[C@H]1C", "viability index": "1.108 ± 0.0023"},
      {"molecule": "OC[C@@H]1[C@@H](c2ccccc2)C2(CN(Cc3ccccc3F)C2)N1Cc1ccccc1F", "viability index": "1.09 ± 0.039"},
      {"molecule": "C[C@@H]1CN([C@@H](C)CO)C(=O)CCCn2nncc2CO[C@@H]1CN(C)CC1CCCCC1", "viability index": "0.9717 ± 0.0072"},
      {"molecule": "O=C(c1ccccc1)N1C[C@H]2[C@@H](c3ccccc31)[C@@H](CO)N2Cc1ccccn1", "viability index": "0.9895 ± 0.0093"},
      {"molecule": "COCC(=O)N1C[C@@H]2[C@H](c3ccccc31)[C@@H](CO)N2C(=O)c1ccccc1F", "viability index": "1.044 ± 0.0014"},
      {"molecule": "CO[C@@H]1CN(C)C(=O)c2cc(NC(=O)Cc3ccccc3)ccc2OC[C@H](C)N(C(=O)c2ccccc2F)C[C@H]1C", "viability index": "1.06 ± 0.024"},
      {"molecule": "CO[C@H]1CN(C)C(=O)c2cc(NC(=O)c3ccc(F)cc3)ccc2OC[C@@H](C)N(C(=O)CC2CC2)C[C@@H]1C", "viability index": "1.13 ± 0.12"},
      {"molecule": "O=C(C[C@@H]1CC[C@H]2[C@@H](COC[C@@H](O)CN2CCc2ccccc2)O1)NCCCN1CCOCC1", "viability index": "1.06 ± 0.07"},
      {"molecule": "C[C@H](CO)N1C[C@H](C)[C@@H](CN(C)Cc2ccc(Cl)c(Cl)c2)Oc2ccc(NC(=O)C3CCCCC3)cc2CC1=O", "viability index": "0.963 ± 0.066"},
      {"molecule": "CCCNC(=O)N1C[C@]2(CN(CC3CCCCC3)C2)c2c([C@@H]1CO)n(C)c1cc(OC)ccc21", "viability index": "0.917 ± 0.037"},
      {"molecule": "C[C@@H]1CN([C@H](C)CO)C(=O)c2cc(NC(=O)C3CCCCC3)ccc2O[C@@H](C)CCCCO[C@@H]1CN(C)C(=O)CCC(F)(F)F", "viability index": "0.817 ± 0.26"},
      {"molecule": "O=C(C[C@@H]1C[C@H]2c3cc(NS(=O)(=O)c4ccc(F)cc4)ccc3O[C@H]2[C@H](CO)O1)NCCN1CCCCC1", "viability index": "1.06 ± 0.028"},
      {"molecule": "CO[C@@H](CN(C)S(=O)(=O)c1cccc(Cl)c1)[C@H](C)CN(C(=O)Nc1ccccc1F)[C@@H](C)CO", "viability index": "1.016 ± 0.01"},
      {"molecule": "O=C(C1CCOCC1)N1CC(=O)N2[C@H](CO)[C@H](c3ccc(C#CCc4ccccc4)cc3)[C@@H]2C1", "viability index": "1.05 ± 0.075"},
      {"molecule": "OC[C@H]1[C@@H](c2ccccc2)C2(CN(Cc3ccccc3F)C2)N1Cc1ccccc1F", "viability index": "1.02 ± 0.018"},
      {"molecule": "Cc1ccccc1S(=O)(=O)N1[C@H](C#N)[C@@H](c2ccccc2-c2cccc(F)c2)[C@@H]1CO", "viability index": "1.111 ± 0.003"},
      {"molecule": "Cc1noc(C)c1NC(=O)Nc1ccc2c(c1)C(=O)N(C)[C@H]1CC[C@@H](CC(=O)N[C@H]3CCN(Cc4ccccc4)C3)O[C@H]1CO2", "viability index": "1.18 ± 0.14"},
      {"molecule": "CCCNC(=O)N1CC(=O)N2[C@@H](CO)[C@@H](c3ccc(C#Cc4cccc(OC)c4)cc3)[C@@H]2C1", "viability index": "1.01 ± 0.064"},
      {"molecule": "O=C(Nc1cc(F)ccc1F)N[C@@H]1CC[C@@H](CC(=O)N2CCc3ccccc3C2)O[C@H]1CO", "viability index": "1.05 ± 0.18"},
      {"molecule": "COc1ccc2c3c([C@H](CO)N(C[C@]33CN(C3)C(=O)c3ccccn3)S(=O)(=O)c3ccc(C)cc3)n(C)c2c1", "viability index": "0.992 ± 0.051"},
      {"molecule": "COCCNC(=O)C[C@H]1CC[C@H]2[C@@H](COC[C@H](O)CN2C(=O)c2cc(Cl)cc(Cl)c2)O1", "viability index": "1.05 ± 0.028"},
      {"molecule": "COc1ccccc1NC(=O)N1CCCCN2[C@H](C1)[C@H](c1ccc(-c3cccc(C#N)c3)cc1)[C@@H]2CO", "viability index": "1.03 ± 0.039"},
      {"molecule": "COc1cccc(S(=O)(=O)N2C[C@@H]3N[C@H](C2)[C@H]3c2ccc(-c3ccccc3F)cc2)c1", "viability index": "1.04 ± 0.02"},
      {"molecule": "COc1cccc(-c2ccc3c(c2)[C@H]2[C@H](CCN2C(=O)c2ccccc2F)[C@H](CO)N3C)c1", "viability index": "0.926 ± 0.04"},
      {"molecule": "CO[C@H]1CN(C)C(=O)c2cc(NC(=O)NC(C)C)ccc2OC[C@@H](C)N(Cc2ccccc2)C[C@H]1C", "viability index": "0.953 ± 0.03"},
      {"molecule": "O=C(Cc1cccnc1)N1CC2(C1)[C@H](c1ccccc1)[C@@H](CO)N2C(=O)C1CCOCC1", "viability index": "1.1 ± 0.013"},
      {"molecule": "COc1ccc2c3c([C@@H](CO)NC[C@]33CN(CC4CCOCC4)C3)n(C)c2c1", "viability index": "1.07 ± 0.029"},
      {"molecule": "O=C(C[C@@H]1C=C[C@@H](NC(=O)c2ccc3c(c2)OCO3)[C@@H](CO)O1)NC1Cc2ccccc2C1", "viability index": "0.963 ± 0.11"},
      {"molecule": "CO[C@H]1CN(C)C(=O)c2ccc(NS(C)(=O)=O)cc2OC[C@@H](C)N(C(=O)CN(C)C)C[C@@H]1C", "viability index": "1.06 ± 0.031"},
      {"molecule": "CO[C@@H]1CN(C)C(=O)c2cc(NC(=O)CC(F)(F)F)ccc2OC[C@@H](C)N(CC2CC2)C[C@H]1C", "viability index": "1.11 ± 0.012"},
      {"molecule": "O=C(Nc1ccc2c(c1)[C@H]1C[C@@H](CC(=O)N3CCCCC3)O[C@@H](CO)[C@H]1O2)NC1CCCCC1", "viability index": "1.072 ± 0.0067"},
      {"molecule": "C[C@@H](O)C#Cc1ccc([C@@H]2[C@@H](CO)N3CCCCN(C(=O)c4ccc5c(c4)OCO5)C[C@H]23)cc1", "viability index": "0.992 ± 0.017"},
      {"molecule": "O=C(CC1CC1)N1CC(=O)N2[C@H](C1)[C@H](c1ccc(/C=C/c3ccccc3)cc1)[C@@H]2CO", "viability index": "1.022 ± 0.0061"}
    ]}
  ]
}
